Consider 27 compounds from the antibiotic and cytotoxicity screens of Wong et al. (2023).

The other results are listed elsewhere or left out.

One assay has as its system HSkMC. Put plainly: cytotoxicity call (relative viability < 0.9). The settings on record: 10 µM.
A further assay concerns HepG2. Kind of assay: cytotoxicity call (relative viability < 0.9). The settings on record: 10 µM.
The subject of another assay is S. aureus RN4220. Kind of assay: growth inhibition call (relative growth <= 0.2). As to conditions: 50 µM.

With `C[C@H]1CN([C@@H](C)CO)C(=O)c2cc(NC(=O)Nc3ccc(C(F)(F)F)cc3)ccc2O[C@@H]1CN(C)CC1CCCCC1`, the cytotoxicity call with HSkMC and in the assay on HepG2 was “inactive” in each case. For the same compound, the growth inhibition call with S. aureus RN4220 is “inactive”.
Regarding `C[C@H]1CCCCO[C@H](CN(C)Cc2ccc(C(=O)O)cc2)[C@@H](C)CN([C@@H](C)CO)C(=O)c2cc(NS(=O)(=O)c3ccc(Cl)cc3)ccc2O1`, the cytotoxicity call in the assay with HSkMC and in the assay on HepG2 was “inactive” in each case. The growth inhibition call in the assay on S. aureus RN4220 was “inactive”.
Turning to `O=C(C[C@H]1CC[C@H]2[C@@H](COC[C@@H](O)CN2S(=O)(=O)c2ccccc2F)O1)NCc1ccccc1F`, the cytotoxicity call in the assay with HSkMC and with HepG2 was “inactive” throughout. Moreover, the growth inhibition call in the assay on S. aureus RN4220 was “inactive”.
Take `C[C@@H]1CN([C@H](C)CO)C(=O)c2cc(NS(=O)(=O)c3ccccc3)ccc2O[C@@H]1CN(C)S(=O)(=O)c1cn(C)cn1`: the cytotoxicity call with HSkMC and in the assay on HepG2 was “inactive” each time. For the same compound, the growth inhibition call in the assay with S. aureus RN4220 is “inactive”.
As for `C[C@H](CO)N1C[C@H](C)[C@H](CN(C)CC2CCCCC2)OCCCC[C@H](C)Oc2ccc(NC(=O)Nc3ccc4c(c3)OCO4)cc2C1=O`, the cytotoxicity call in the assay with HSkMC was “inactive”. In the assay on HepG2, the cytotoxicity call was “active”. Moreover, the growth inhibition call with S. aureus RN4220 was “inactive”.
Regarding `CC(C)N1CC=C[C@@]23O[C@@H]4C=CCOC(=O)[C@@H]4[C@H]2C(=O)N(CCCO)[C@@H]3C1=O`, the cytotoxicity call in the assay on HSkMC and with HepG2 was “inactive” each time. In addition, the growth inhibition call with S. aureus RN4220 is “inactive”.
As for `C[C@@H]1CN([C@H](C)CO)S(=O)(=O)c2ccc(C#CC3CC3)cc2O[C@@H]1CN(C)Cc1ccc(F)cc1`, the cytotoxicity call in the assay with HSkMC and in the assay on HepG2 was “inactive” throughout. For the same compound, the growth inhibition call in the assay on S. aureus RN4220 is “inactive”.
Regarding `COCCC(=O)N1CCN(c2ccccn2)CC1`, the cytotoxicity call in the assay on HSkMC and in the assay on HepG2 was “inactive” in each case. Besides, in the assay on S. aureus RN4220, the growth inhibition call was “inactive”.
For `COCC#Cc1ccc([C@H]2[C@@H](CO)N3C(=O)CN(C(=O)c4ccncc4)C[C@H]23)cc1`, the cytotoxicity call in the assay with HSkMC and with HepG2 was “inactive” in each case. Further, in the assay with S. aureus RN4220, the growth inhibition call was “inactive”.
Turning to `C[C@H](CO)N1C[C@H](C)[C@@H](CN(C)Cc2ccc(C(=O)O)cc2)OCCCC[C@H](C)Oc2ccc(NC(=O)Nc3ccc(C(F)(F)F)cc3)cc2C1=O`, the cytotoxicity call with HSkMC and in the assay on HepG2 was “inactive” in each case. The growth inhibition call in the assay with S. aureus RN4220 is “inactive”.
With `COc1ccc(N2CCn3c2nnc(C(=O)NCCO)c3=O)cc1`, the cytotoxicity call with HSkMC and in the assay with HepG2 was “inactive” each time. In addition, in the assay with S. aureus RN4220, the growth inhibition call is “inactive”.
As to `CC(C)CC#Cc1cnc2c(c1)C(=O)N([C@@H](C)CO)C[C@@H](C)[C@@H](CN(C)C(=O)CCN1CCCCC1)O2`, the cytotoxicity call in the assay on HSkMC and with HepG2 was “inactive” in each case. The growth inhibition call in the assay on S. aureus RN4220 was “inactive”.
With `C[C@@H]1CCCCO[C@@H](CN(C)Cc2ccc(C(=O)Nc3ccccc3N)cc2)[C@@H](C)CN([C@H](C)CO)C(=O)c2cc(NC(=O)c3ccncc3)ccc2O1`, the cytotoxicity call in the assay on HSkMC and in the assay with HepG2 was “inactive” throughout. In the assay with S. aureus RN4220, the growth inhibition call is “inactive”.
`C[C@@H]1CN([C@@H](C)CO)C(=O)Cc2cc(NC(=O)Nc3ccc(F)cc3)ccc2O[C@H]1CN(C)C(=O)Nc1cccc2ccccc12`: the cytotoxicity call in the assay with HSkMC and in the assay with HepG2 was “inactive” in each case. For the same compound, in the assay on S. aureus RN4220, the growth inhibition call was “inactive”.
Turning to `COC(=O)[C@H](Cc1ccccc1)N1CC2=C[C@@H](C3CC3)n3c(=O)n(C)c(=O)n3[C@H]2[C@@H]1[C@@H](O)CCn1cc(-c2ccc(C(=O)NO)cc2)nn1`, the cytotoxicity call in the assay with HSkMC and in the assay with HepG2 was “inactive” throughout. Further, in the assay on S. aureus RN4220, the growth inhibition call is “inactive”.
For `C[C@@H]1CN([C@H](C)CO)S(=O)(=O)c2ccc(-c3ccccc3F)cc2O[C@@H]1CN(C)Cc1cncnc1`, the cytotoxicity call in the assay on HSkMC and with HepG2 was “inactive” throughout. Moreover, in the assay on S. aureus RN4220, the growth inhibition call was “inactive”.
As to `CN(C)CC(=O)N1[C@@H]2Cn3c(ccc(-c4ccncc4)c3=O)[C@H]1[C@@H](C(=O)NC1CCC1)[C@@H]2CO`, the cytotoxicity call in the assay on HSkMC and with HepG2 was “inactive” each time. The growth inhibition call with S. aureus RN4220 was “inactive”.
Consider `C[C@H]1CN([C@@H](C)CO)C(=O)c2cccc(NS(=O)(=O)c3ccc(F)cc3)c2O[C@@H]1CN(C)S(=O)(=O)c1ccccc1`, for which the cytotoxicity call with HSkMC and in the assay on HepG2 was “inactive” throughout. Moreover, the growth inhibition call with S. aureus RN4220 was “inactive”.
With `C[C@@H]1CCCCO[C@@H](CN(C)C(=O)Nc2ccc3c(c2)OCO3)[C@H](C)CN([C@H](C)CO)C(=O)c2cc(NC(=O)Cc3ccccc3)ccc2O1`, the cytotoxicity call in the assay with HSkMC and in the assay with HepG2 was “inactive” throughout. The growth inhibition call in the assay on S. aureus RN4220 is “inactive”.
Regarding `C[C@H](CO)N1C[C@H](C)[C@H](CN(C)CC2CCCCC2)Oc2c(NC(=O)Nc3ccc(C(F)(F)F)cc3)cccc2C1=O`, the cytotoxicity call in the assay with HSkMC and with HepG2 was “inactive” each time. In addition, the growth inhibition call in the assay with S. aureus RN4220 is “inactive”.
Consider `C[C@@H]1CN([C@@H](C)CO)C(=O)Cc2cc(NS(=O)(=O)c3ccc(F)cc3)ccc2O[C@@H]1CN(C)Cc1ccc(Oc2ccccc2)cc1`, for which the cytotoxicity call with HSkMC and in the assay on HepG2 was “active” each time. Besides, the growth inhibition call in the assay with S. aureus RN4220 is “inactive”.
On to `COc1ccc(S(=O)(=O)N2CCO[C@@H]2CNC(=O)C(=O)NCc2ccncc2)cc1`, for which the cytotoxicity call with HSkMC and in the assay with HepG2 was “inactive” in each case. Besides, in the assay with S. aureus RN4220, the growth inhibition call was “inactive”.
Regarding `C[C@H](CO)N1C[C@H](C)[C@@H](CN(C)S(C)(=O)=O)Oc2ccc(NS(=O)(=O)c3ccc(Cl)cc3)cc2CC1=O`, the cytotoxicity call in the assay with HSkMC and with HepG2 was “inactive” each time. Also, the growth inhibition call in the assay with S. aureus RN4220 was “inactive”.
Consider `Cc1cc(C)n(C(N)=S)n1`, for which the cytotoxicity call in the assay on HSkMC (human skeletal muscle cells) and in the assay with HepG2 was “inactive” throughout. For the same compound, the growth inhibition call with S. aureus RN4220 was “inactive”.
Take `CN(C)CCCNC(=O)C[C@H]1CC[C@H]2[C@@H](COC[C@H](O)CN2S(=O)(=O)c2ccc(F)cc2)O1`: the cytotoxicity call with HSkMC and with HepG2 was “inactive” throughout. Also, in the assay on S. aureus RN4220, the growth inhibition call is “inactive”.
With `COc1ccc(NC(=O)N2C[C@H](O)COC[C@H]3O[C@@H](CC(=O)NC4Cc5ccccc5C4)CC[C@@H]32)cc1`, the cytotoxicity call with HSkMC and with HepG2 was “inactive” in each case. Further, in the assay on S. aureus RN4220, the growth inhibition call is “inactive”.
Regarding `Cc1ccc(S(=O)(=O)Nc2ccc3c(c2)C(=O)N([C@H](C)CO)C[C@H](C)[C@H](CN(C)C(=O)Nc2c(C)noc2C)OCCCC[C@H](C)O3)cc1`, the cytotoxicity call in the assay with HSkMC and in the assay with HepG2 was “inactive” throughout. The growth inhibition call with S. aureus RN4220 is “inactive”.
